{"source": "PubChem BioAssay AID1460", "about": "(National Center for Advancing Translational Sciences (NCATS), 2008)", "note": "The campaign covered roughly 270,000 compounds. About 5,800 (2.1%) were called active. Inconclusive means that the source gave no clear call. Such entries were picked first, then a sample of the others. The call rests on the fitted dose curve; in most records, active means well fitted inhibition curve with a large enough effect; inconclusive means small, poorly fitted or top-dose-only effect; inactive means flat fitted curve, though single readings scatter. Potencies of inconclusive entries are doubtful fits and often do not repeat. On the % scale 0 is the no-effect control and ±100 the full control effect; potency means the concentration at half of the fitted maximal effect; tags describe the fitted curve by direction and shape.", "data": [{"target": "Microtubule-associated protein tau (Homo sapiens) (UniProt P10636)", "sequence (P10636 whole entry, looked up, the tested form may be a part)": "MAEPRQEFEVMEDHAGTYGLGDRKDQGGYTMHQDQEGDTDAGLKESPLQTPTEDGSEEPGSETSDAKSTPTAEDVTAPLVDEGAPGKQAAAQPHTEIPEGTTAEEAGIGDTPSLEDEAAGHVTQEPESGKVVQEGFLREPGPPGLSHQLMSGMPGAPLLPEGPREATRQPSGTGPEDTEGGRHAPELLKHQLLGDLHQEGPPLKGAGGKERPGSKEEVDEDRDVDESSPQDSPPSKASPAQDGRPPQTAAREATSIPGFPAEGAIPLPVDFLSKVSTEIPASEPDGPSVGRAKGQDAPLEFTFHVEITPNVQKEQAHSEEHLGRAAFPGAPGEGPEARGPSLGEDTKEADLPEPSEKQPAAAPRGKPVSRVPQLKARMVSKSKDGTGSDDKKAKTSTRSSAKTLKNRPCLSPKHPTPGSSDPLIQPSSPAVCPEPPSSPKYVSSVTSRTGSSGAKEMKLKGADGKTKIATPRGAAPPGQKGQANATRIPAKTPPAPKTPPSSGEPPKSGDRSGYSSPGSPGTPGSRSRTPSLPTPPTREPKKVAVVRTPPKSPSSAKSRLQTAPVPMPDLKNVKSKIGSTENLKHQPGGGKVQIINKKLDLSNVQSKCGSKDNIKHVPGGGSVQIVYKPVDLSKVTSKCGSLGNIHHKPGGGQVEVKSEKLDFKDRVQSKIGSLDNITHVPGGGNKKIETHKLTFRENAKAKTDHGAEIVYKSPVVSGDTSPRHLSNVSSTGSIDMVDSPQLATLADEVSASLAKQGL", "test": "qHTS for Inhibitors of Tau Fibril Formation, Thioflavin T Binding; further: nearly all actives have a fitted effect of over 55% in size", "settings": "recombinant tau K18 P301L (four-repeat tau fragment), heparin-induced fibrillization, ThT fluorescence; series mostly up to 57.4 µM; activity, negative = inhibition: at the top concentration", "how_it_was_run": "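Aggregation was driven by heparin (20 uM final) acting on recombinant tau […] bearing P301L in 100 mM sodium acetate pH 7; fibrils were detected with Thioflavin T.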", "values": [{"smiles": "COc1cc(OC)cc(C(=O)NC(=S)NNC(=O)[C@H]2C[C@@H]2c2ccccc2)c1", "Potency": "inconclusive: 11.2 µM [inhibitor, partial curve]"}, {"smiles": "O=C(N/N=C/c1ccco1)c1cccc(N2Cc3ccccc3C2)c1", "Potency": "inconclusive: 0.631 µM [inhibitor, partial curve, poor fit]"}, {"smiles": "COc1ccc(C(=O)Nc2ccc3oc(-c4cccnc4)nc3c2)cc1", "Potency": "inconclusive: 0.631 µM [inhibitor, full curve]"}, {"smiles": "CCOC(=O)C1(C)/C(=N/Nc2cccc(Cl)c2)C(=O)C(=O)N1c1ccccc1", "note": "(stereo unspecified)", "Potency": "active: 20 µM"}, {"smiles": "Clc1cccc(N2CCN(c3nc4ccccc4n4nnnc34)CC2)c1", "Potency": "inconclusive: 20 µM [inhibitor, partial curve]"}, {"smiles": "O=C(NCc1nc2ccccc2[nH]1)C1=C[C@H](c2ccccc2)C[C@H](OCc2ccc(CO)cc2)O1", "Potency": "inconclusive: 25.1 µM [inhibitor, single point]"}, {"smiles": "O=C(CSc1nnc2c(n1)[nH]c1ccccc12)Nc1ccc2c(c1)OCO2", "Potency": "inconclusive: 3.55 µM [inhibitor, full curve]"}, {"smiles": "Cc1cccc(Cn2c(C(=O)OC(C)C)cc3c2ccn3C)c1", "Potency": "active: 35.5 µM"}, {"smiles": "O=C(COc1ccccc1F)Nc1ccc2oc(-c3cccc(Cl)c3)nc2c1", "Potency": "inconclusive: 20 µM [inhibitor, partial curve, poor fit]"}, {"smiles": "N/C(=N\\OC(=O)C(c1ccccc1)c1ccccc1)c1cccnc1", "activity, negative = inhibition": "inactive: -6.42%"}, {"smiles": "O=C1NN(c2ccc(Cl)cc2)C(=O)/C1=C\\c1ccc(-c2cccc(C(=O)O)c2)o1", "Potency": "active: 7.94 µM"}, {"smiles": "Cc1cccc(C)c1OCCCCCNCCO", "activity, negative = inhibition": "inactive: -2.24%"}, {"smiles": "O=C(N/N=C/c1cccc([N+](=O)[O-])c1)c1ccncc1", "Potency": "inconclusive: 20 µM [inhibitor, partial curve, poor fit]"}, {"smiles": "Cc1cc(C)c(NC(=O)COC(=O)c2cccc3c2C(=O)c2ccccc2C3=O)c(C)c1", "Potency": "inconclusive: 22.4 µM [inhibitor, single point]"}, {"smiles": "CCN(c1cccc(C)c1)S(=O)(=O)c1ccc2c(c1)CCN2C(C)=O", "activity, negative = inhibition": "inactive: -7.17%"}, {"smiles": "COC(=O)c1sccc1S(=O)(=O)N1CCN(c2cc(Cl)ccc2C)CC1", "activity, negative = inhibition": "inactive: -8.93%"}, {"smiles": "COCCCn1c(C)nnc1SCC(=O)NCc1ccco1", "Potency": "inconclusive: 28.2 µM [inhibitor, single point]"}, {"smiles": "CCOC(=O)COc1ccc(CC)cc1C(=O)c1ccn2nc(-c3ccccc3)cc2n1", "activity, negative = inhibition": "inactive: -18.1%"}, {"smiles": "NC(=O)COC(=O)c1cccc(S(=O)(=O)N2CCN(c3ccccc3)CC2)c1", "activity, negative = inhibition": "inactive: 3.26%"}, {"smiles": "Cc1c(C(=O)NCc2ccccc2)sc2nc3n(c(=O)c12)CCCCC3", "Potency": "inconclusive: 22.4 µM [inhibitor, partial curve]"}, {"smiles": "Cc1ccc(-c2c3c(nc4sc(C(N)=O)c(N)c24)CCC3)cc1", "activity, negative = inhibition": "inactive: -15.4%"}, {"smiles": "Cc1ccc(OCC(=O)Nc2cccc(-c3nc4ccccc4s3)c2)cc1", "Potency": "inconclusive: 5.62 µM [inhibitor, partial curve, poor fit]"}, {"smiles": "CC(C)=NNc1nc2c(c(=O)n(C)c(=O)n2C)n1CCc1ccccc1", "Potency": "inconclusive: 31.6 µM [inhibitor, partial curve]"}, {"smiles": "COc1ccc(C(=O)CSc2ncn[nH]2)cc1OC", "activity, negative = inhibition": "inactive: 2%"}, {"smiles": "Cc1nn2c(=O)cc(COC(=O)c3cccc(NC(=O)CCc4ccccc4)c3)nc2s1", "Potency": "inconclusive: 1.78 µM [inhibitor, full curve, poor fit]"}, {"smiles": "COc1cc(/C=C(/C#N)c2ccc(F)cc2)ccc1OCc1ccc(C(=O)O)o1", "Potency": "inconclusive: 3.16 µM [inhibitor, single point]"}, {"smiles": "Cc1ccc(-c2noc(CN(C(=O)Cc3ccccc3)C(C)C)n2)cc1", "activity, negative = inhibition": "inactive: -7.97%"}, {"smiles": "c1ccc2sc(SCc3ccc(-c4nnco4)cc3)nc2c1", "Potency": "inconclusive: 1 µM [inhibitor, full curve]"}, {"smiles": "CCOc1ccc(-n2c(/C=C/c3cccc(F)c3)nc3cc(OC)c(OC)cc3c2=O)cc1", "activity, negative = inhibition": "inactive: 5.86%"}, {"smiles": "COc1ccc(-c2cc(-c3ccc(F)cc3)nc3c2COc2ccc(F)cc2-3)cc1", "activity, negative = inhibition": "inactive: -6.56%"}, {"smiles": "Cc1cc(/C=C(\\C#N)c2nc3ccccc3[nH]2)c(C)n1C", "Potency": "inconclusive: 8.91 µM [inhibitor, full curve]"}, {"smiles": "Cc1cccc(S(=O)(=O)N2CN(Cc3ccco3)c3nc4ccccc4nc32)c1", "Potency": "inconclusive: 28.2 µM [inhibitor, single point]"}, {"smiles": "CN(C)c1ccc(-c2ccc3ncnc(N4CCNCC4)c3c2)cc1", "Potency": "inconclusive: 20 µM [inhibitor, partial curve]"}, {"smiles": "CCn1cc2nc(SCC(=O)Nc3ccc(OC)c(OC)c3)n(Cc3ccc(Cl)cc3)c(=O)c2n1", "Potency": "inconclusive: 44.7 µM [inhibitor, single point]"}, {"smiles": "Cc1[nH]nc2c1C(c1ccoc1)C(C#N)=C(N)O2", "note": "(stereo unspecified)", "Potency": "inconclusive: 31.6 µM [inhibitor, single point]"}, {"smiles": "CC1(C)CC(=O)C2=C(C1)N1C(=C(C#N)C2c2ccccc2Cl)N=C(N)c2ccccc21", "note": "(stereo unspecified)", "Potency": "inconclusive: 14.1 µM [inhibitor, partial curve]"}, {"smiles": "CCCOc1cccc(C(=O)Nc2cccc(-c3nc4ncccc4o3)c2C)c1", "Potency": "inconclusive: 22.4 µM [inhibitor, single point]"}, {"smiles": "COC(OC)c1ccnc(-c2ccc(OC(=O)c3ccccc3)cc2)n1", "Potency": "inconclusive: 12.6 µM [inhibitor, partial curve, poor fit]"}, {"smiles": "CN(C)c1cccc(C(=O)OCC(=O)N(Cc2ccccc2)C2CCS(=O)(=O)C2)c1", "note": "(stereo unspecified)", "Potency": "inconclusive: 22.4 µM [inhibitor, single point]"}, {"smiles": "O=C(Nc1nc(-c2ccccn2)cs1)C1COc2ccccc2O1", "note": "(stereo unspecified)", "activity, negative = inhibition": "inactive: 1.53%"}, {"smiles": "O=C(C1CCCN(S(=O)(=O)c2ccc(F)cc2)C1)N(Cc1cccs1)C1CC1", "note": "(stereo unspecified)", "activity, negative = inhibition": "inactive: -10.2%"}, {"smiles": "N#C/C(=C\\c1ccc(-c2cccc(Cl)c2)o1)C(=O)Nc1cccc2cccnc12", "Potency": "active: 2.51 µM"}, {"smiles": "CC(C)Cn1cc(C(=O)NCc2cccs2)c2c3ccccc3n(C)c2c1=O", "Potency": "active: 10 µM"}, {"smiles": "Cc1cccc(NC(=O)c2ccc(COc3ccc(Cl)cc3Cl)o2)n1", "Potency": "inconclusive: 17.8 µM [inhibitor, partial curve]"}, {"smiles": "c1ccc2c(c1)Cc1cc3ccccc3nc1-2", "Potency": "inconclusive: 8.91 µM [inhibitor, partial curve]"}, {"smiles": "COC(=O)Cn1c2ccc(C)cc2c2nc(C)sc21", "Potency": "inconclusive: 39.8 µM [inhibitor, single point]"}, {"smiles": "CC(C)Oc1ccccc1C1C=C(C(=O)O)Nc2ncnn21", "note": "(stereo unspecified)", "activity, negative = inhibition": "inactive: 3.26%"}, {"smiles": "COc1ccc2nc(Nc3nc(CSc4nc5ccccc5[nH]4)cc(=O)[nH]3)nc(C)c2c1", "Potency": "inconclusive: 8.91 µM [inhibitor, partial curve]"}, {"smiles": "COc1ccc(N2C(=O)CC(Sc3n[nH]c(-c4ccc(C)cc4)n3)C2=O)cc1", "note": "(stereo unspecified)", "Potency": "inconclusive: 14.1 µM [inhibitor, single point]"}, {"smiles": "COc1ccc(Cn2c(=O)[nH]c3cc(C(=O)NCCCN4CCCC4)ccc3c2=O)cc1", "Potency": "inconclusive: 44.7 µM [inhibitor, partial curve, poor fit]"}, {"smiles": "CCC1CCCCN1CC(=O)Nc1cc(C)nn1-c1nc(C)cc(C)n1", "note": "(stereo unspecified)", "activity, negative = inhibition": "inactive: -3.24%"}, {"smiles": "COc1ccc2c(c1OC)C(=O)OC2c1c(O)nc(SC)n(-c2ccccc2)c1=O", "note": "(stereo unspecified)", "activity, negative = inhibition": "inactive: -12.8%"}, {"smiles": "BrC(=C\\c1ccccc1)/C=N/Nc1nc2ccccc2[nH]1", "Potency": "active: 25.1 µM"}, {"smiles": "CC(CNC(=O)C1CCN(C(=O)N2CCOc3ccc(Cl)cc32)CC1)c1ccccc1", "note": "(stereo unspecified)", "activity, negative = inhibition": "inactive: -16.3%"}, {"smiles": "COc1ccc2[nH]c3c(c2c1)CCC/C3=N\\N", "Potency": "inconclusive: 10 µM [inhibitor, partial curve]"}, {"smiles": "COc1ccc(N2CCN(C(C)C(=O)N3CC(C)OC(C)C3)CC2)cc1", "note": "(stereo unspecified)", "activity, negative = inhibition": "inactive: -22.8%"}, {"smiles": "NC(=O)c1sc2nc3c(c(-c4ccco4)c2c1N)CCC3", "Potency": "inconclusive: 20 µM [inhibitor, partial curve]"}, {"smiles": "COC(=O)CSc1nnc(CNC(=O)c2cccs2)n1-c1cc(OC)ccc1OC", "Potency": "inconclusive: 35.5 µM [inhibitor, partial curve]"}, {"smiles": "Cc1cccc(CNc2ncnc3ccc(-c4cccc(NS(C)(=O)=O)c4)cc23)c1", "Potency": "inconclusive: 31.6 µM [activator, single point]"}, {"smiles": "NC(=O)CC(NC(=O)Cc1cccc2ccccc12)c1ccc(NCC2CC2)c([N+](=O)[O-])c1", "note": "(stereo unspecified)", "Potency": "inconclusive: 15.8 µM [inhibitor, partial curve]"}, {"smiles": "O=C(Cc1cccs1)N=Nc1c(O)[nH]c2ccccc12", "Potency": "inconclusive: 25.1 µM [inhibitor, single point]"}, {"smiles": "COC(=O)C1=C2SCC(=O)N2C(N)=C(C#N)C1", "Potency": "inconclusive: 39.8 µM [inhibitor, single point]"}, {"smiles": "COc1ccc(CN2C(=O)c3ccccc3C(/C=N\\OCc3ccc(F)cc3)C2=O)cc1", "note": "(stereo unspecified)", "activity, negative = inhibition": "inactive: -6.04%"}, {"smiles": "COCCN1CCn2c(nc3cc(NC(=O)Cn4nc(C)c5ccccc5c4=O)ccc32)C1", "Potency": "inconclusive: 20 µM [inhibitor, partial curve]"}, {"smiles": "COc1ccc(/C=N/NC(=O)c2ccccc2F)cc1CN1CCN(c2ccc(F)cc2)CC1", "activity, negative = inhibition": "inactive: 5.4%"}, {"smiles": "COCC(C)NC(=O)c1cc2c(=O)n3cccc(C)c3nc2s1", "note": "(stereo unspecified)", "Potency": "inconclusive: 39.8 µM [inhibitor, single point]"}, {"smiles": "CCOC(=O)c1ccc(-c2ccc(/C=C(\\C#N)c3nc4ccc(C)cc4[nH]3)o2)cc1", "activity, negative = inhibition": "inactive: -4.9%"}, {"smiles": "Cc1ccc2[nH]cc(C(c3ccccc3)c3ccc(C)s3)c2c1", "note": "(stereo unspecified)", "activity, negative = inhibition": "inactive: -19.3%"}, {"smiles": "Cc1ccc2nc(-c3ccc(NC(=O)C(C)N4C(=O)c5ccccc5C4=O)cc3)sc2c1", "note": "(stereo unspecified)", "activity, negative = inhibition": "inactive: -12.2%"}, {"smiles": "CC1=C(C(=O)Nc2ccccc2)C(c2ccco2)C(C#N)=C(SCC(=O)Nc2cccc(C)c2C)N1", "note": "(stereo unspecified)", "activity, negative = inhibition": "inactive: -7.84%"}, {"smiles": "CCCN1CCC(=NNc2ccc(C(=O)O)cc2)CC1", "Potency": "inconclusive: 22.4 µM [inhibitor, single point]"}]}]}
